Data taken from the antibiotic and cytotoxicity screens of Wong et al. (2023).
This is one part of the list.

Tested on: S. aureus RN4220
Test: growth inhibition call (relative growth <= 0.2)
Settings: 50 µM

Growth inhibition call, inactive:
COc1ccc(S(=O)(=O)N(C)C[C@@H]2Oc3ccc(N(C)C)cc3C(=O)N([C@H](C)CO)C[C@@H]2C)cc1, C[C@@H]1CCCCO[C@@H](CN(C)C(=O)Nc2ccc(C(F)(F)F)cc2)[C@H](C)CN([C@@H](C)CO)C(=O)c2cc(NC(=O)Nc3cccc4ccccc34)ccc2O1, O=S(=O)(NCC[C@@H]1CC[C@@H](NS(=O)(=O)c2cccc(Cl)c2)[C@@H](CO)O1)c1cccc(F)c1, O=C(C[C@@H]1C=C[C@H](NC(=O)c2ccncc2)[C@@H](CO)O1)NCc1ccncn1, C[C@@H]1CN([C@@H](C)CO)C(=O)c2cc(NC(=O)c3ccccc3)ccc2O[C@@H](C)CCCCO[C@@H]1CN(C)S(=O)(=O)c1ccc(Cl)cc1, CC(C)NC(=O)Nc1ccc2c(c1)C(=O)N([C@H](C)CO)C[C@H](C)[C@H](CN(C)C(=O)Nc1ccc(F)cc1)OCCCC[C@H](C)O2, CSCC[C@H](N)C(=O)O, C[C@H](CO)N1C[C@H](C)[C@@H](CN(C)C(=O)Nc2cccc3ccccc23)Oc2c(NC(=O)Nc3ccccc3)cccc2C1=O, C[C@@H](C(=O)O)n1ncccc1=O, Cc1ccccc1C(=O)Nc1ccc(C(=O)N2CCCC(O)c3cc(Cl)ccc32)c(C)c1 (stereo not drawn), NC1CCN(c2cccc(Cl)n2)CC1, C[C@@H]1CN([C@@H](C)CO)C(=O)c2c(c3ccccc3n2C)-c2ccccc2CO[C@H]1CN(C)C(=O)Nc1ccc(-c2ccccc2)cc1, CCCNC(=O)N(C)C[C@@H]1Oc2ncc(-c3ccc(C(=O)N(C)C)cc3)cc2C(=O)N([C@H](C)CO)C[C@H]1C
